In PubChem BioAssay AID504339 (National Center for Advancing Translational Sciences (NCATS), 2011):
The whole screen tested about 390,000 compounds, of which about 17,000 (4.4%) were called active. Inconclusive results, whose numbers are uncertain, are shown with a selection of clear calls. Calls follow the shape of the dose curve; as a rule, active = well fitted inhibition curve with a large enough effect; inconclusive = small, poorly fitted or top-dose-only effect; inactive = no such curve, though single readings can be large or run the other way. Potencies beside an inconclusive call are fits to weak or partial responses and may not hold up.

Target: Lysine-specific demethylase 4A (Homo sapiens) (UniProt O75164)
Sequence of UniProt O75164 (O75164 whole entry, looked up, the tested form may be a part): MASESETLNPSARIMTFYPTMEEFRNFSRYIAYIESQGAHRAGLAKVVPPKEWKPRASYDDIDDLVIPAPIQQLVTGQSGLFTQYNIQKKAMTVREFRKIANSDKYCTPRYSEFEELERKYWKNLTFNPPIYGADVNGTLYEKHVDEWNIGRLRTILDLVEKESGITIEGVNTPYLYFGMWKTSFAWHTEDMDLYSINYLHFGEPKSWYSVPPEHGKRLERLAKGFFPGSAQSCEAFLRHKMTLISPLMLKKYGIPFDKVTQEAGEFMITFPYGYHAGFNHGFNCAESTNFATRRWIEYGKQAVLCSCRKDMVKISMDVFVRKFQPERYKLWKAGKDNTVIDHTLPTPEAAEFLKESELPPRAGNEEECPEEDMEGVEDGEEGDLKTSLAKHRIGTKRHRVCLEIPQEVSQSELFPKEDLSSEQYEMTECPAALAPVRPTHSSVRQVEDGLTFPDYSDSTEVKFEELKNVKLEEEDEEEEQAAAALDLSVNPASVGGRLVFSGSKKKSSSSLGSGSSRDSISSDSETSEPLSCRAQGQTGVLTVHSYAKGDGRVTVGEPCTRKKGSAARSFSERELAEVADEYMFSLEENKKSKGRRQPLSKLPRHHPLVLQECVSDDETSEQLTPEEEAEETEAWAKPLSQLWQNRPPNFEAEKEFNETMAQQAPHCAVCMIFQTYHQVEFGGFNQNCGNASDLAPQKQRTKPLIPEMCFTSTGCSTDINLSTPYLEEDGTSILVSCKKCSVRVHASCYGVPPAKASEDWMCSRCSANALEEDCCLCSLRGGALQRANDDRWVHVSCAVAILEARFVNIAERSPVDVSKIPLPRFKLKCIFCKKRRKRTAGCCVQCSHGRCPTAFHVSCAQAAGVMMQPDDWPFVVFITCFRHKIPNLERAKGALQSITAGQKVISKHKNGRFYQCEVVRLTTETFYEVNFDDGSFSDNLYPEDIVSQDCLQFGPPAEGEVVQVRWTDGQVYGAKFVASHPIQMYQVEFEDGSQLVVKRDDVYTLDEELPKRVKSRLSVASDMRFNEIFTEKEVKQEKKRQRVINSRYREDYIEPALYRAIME
Test: qHTS Assay for Inhibitors of JMJD2A-Tudor Domain; also: nearly all actives have a fitted effect of over 50% in size
Settings: AlphaScreen JMJD2A-Tudor / H3K4me3 peptide binding; activity change, negative = inhibition: at 114 µM (top of the series)
% is scaled to controls: 0 for no effect and ±100 for the full control effect; potency is read from the fitted curve at half-maximal effect; tags tell the direction and shape of the fitted curve.

Structure (SMILES)	activity change, negative = inhibition	Potency
O=C(CCc1ccccc1)NNC(=O)c1ccccc1C(=O)O	inactive: -7.95%	
O=c1c(N2CCN(c3cccc(Cl)c3)CC2)csc2ccc(Cl)cc12		inconclusive: 35.5 µM [inhibitor, full curve, poor fit]
CCOc1ccc(/C(O)=C2/C(=O)C(=O)N(c3ccccn3)C2c2ccc(F)cc2)c(C)c1 (centres undefined)		inconclusive: 15.8 µM [inhibitor, full curve]
CSc1ccc(C(=S)N2CCN(Cc3ccccc3)CC2)cc1		inconclusive: 44.7 µM [inhibitor, partial curve]
Cc1cc([N+](=O)[O-])nn1Cc1ccc(C(=O)N/N=C/c2ccc(O)cc2O)cc1		inconclusive: 89.1 µM [inhibitor, single point]
CC1CCCCC12NC(=S)N(c1ccccc1)N2 (centres undefined)		active: 11.2 µM
Cc1ccc(Cl)cc1Nc1nn2c(=O)c3ccc(C(=O)NC4CCCCC4)cc3nc2s1	inactive: -10.7%	
CCOC(=O)C1(Cc2cccc(Cl)c2)CCCN(C(=O)c2ccco2)C1 (centres undefined)		inconclusive: 14.1 µM [inhibitor, full curve, poor fit]
CCOc1ccc(NC(=O)CNC(=O)c2nn(-c3ccc(OC)cc3)c(=O)c3ccccc23)cc1	inactive: -3.17%	
C=CCNC(=O)c1onc(CSc2cccc3ccccc23)c1C(=O)O	inactive: -26.4%	
c1ccc(CNc2nc(NCc3ccco3)nc(N3CCOCC3)n2)cc1		inconclusive: 22.4 µM [inhibitor, partial curve]
O=[N+]([O-])c1ccccc1N/N=C/c1cc2ccccc2nc1Cl		inconclusive: 31.6 µM [inhibitor, partial curve, poor fit]
COc1ccc(NCC(=O)N/N=C/c2cc([N+](=O)[O-])ccc2N2CCCC2)cc1		inconclusive: 3.16 µM [inhibitor, single point]
O=C(NC(Cc1ccccc1)C(=O)O)/C(=C/c1ccco1)NC(=O)c1cccc(Br)c1 (centres undefined)		inconclusive: 56.2 µM [inhibitor, single point]
O=S(=O)(c1cccs1)N1CCN(CC(O)COc2cccc(Br)c2)CC1 (centres undefined)		active: 3.16 µM
Cc1cc2nccnc2cc1C	inactive: -0.69%	
CCN(CC)C(=O)C1CCCN(c2ncnc3c2c(-c2ccccc2)cn3-c2cccc(C)c2)C1 (centres undefined)		inconclusive: 50.1 µM [inhibitor, partial curve]
Cc1cccc(NC(=O)N2CC=C(c3c[nH]c4ccccc34)CC2)c1C		inconclusive: 44.7 µM [inhibitor, partial curve]
CN(C)/C=C1/Nc2ccccc2C1=O		active: 50.1 µM
CC1=C(c2ccc(C(C)C)cc2)S(=O)(=O)NC1=NCc1ccc(Cl)cc1		inconclusive: 89.1 µM [inhibitor, single point]
CSc1ccc(C2C(C#N)=C(N)Oc3c2ccc(=O)c2c(C)oc(C)c32)cc1 (centres undefined)		active: 56.2 µM
Cc1ccc(-c2ccc(C(=O)NCc3ccc(Cl)cc3)o2)c2ccccc12		inconclusive: 25.1 µM [inhibitor, full curve, poor fit]
O=C(O)c1ccc2c(c1)-c1nc3ccccc3n1C2=O		active: 17.8 µM

Structure (SMILES)	activity change, negative = inhibition	Potency
COc1cc2[nH]c(=S)n(CCCN3CCOCC3)c(=O)c2cc1OC		active: 25.1 µM
CCOC(=O)Nc1ccc2c(COC(=O)C(NS(=O)(=O)c3ccc(Cl)cc3)C(C)O)cc(=O)oc2c1 (centres undefined)		inconclusive: 39.8 µM [inhibitor, partial curve]
CCOC(=O)N1CCN(Cc2nc(N)nc(Nc3ccc(Oc4ccccc4)cc3)n2)CC1		inconclusive: 79.4 µM [inhibitor, partial curve, poor fit]
S=c1[nH]c(-c2ccccc2)cn1/N=C/c1cccs1		active: 3.16 µM
CCOC(=O)c1ccccc1NC(=O)c1nn(-c2ccc(OC)c(Cl)c2)c(=O)c2c1c1ccccc1n2C	inactive: 0%	
CC1CCN(CCOc2cc(Cl)ccc2Cl)CC1		active: 3.55 µM
Cc1c(CN(C)Cc2cn(C)nc2-c2ccccc2F)[nH]c2ccccc12		inconclusive: 50.1 µM [inhibitor, partial curve]
Nc1c(N=Nc2ccccc2F)c(=O)[nH]n1-c1ccccc1		inconclusive: 56.2 µM [inhibitor, partial curve]
COc1ccc(C(=O)N/C(=C\c2cn(C)c3ccccc23)C(=O)NCCCn2ccnc2)cc1		inconclusive: 39.8 µM [inhibitor, partial curve]
O=[N+]([O-])c1ccccc1CNC1CCCCCC1		active: 50.1 µM
CSc1ccc(CNC(=O)C2CCN(c3nnc(-n4cccc4CNc4ccc(C)cc4)s3)CC2)cc1		inconclusive: 0.282 µM [inhibitor, full curve, poor fit]
N#Cc1c(-n2ncnc2-c2ccc(Br)cc2)sc2c1CCCCC2		inconclusive: 5.01 µM [inhibitor, partial curve, poor fit]
COc1cccc(/C=C/C(=O)c2cccc([N+](=O)[O-])c2)c1		inconclusive: 56.2 µM [inhibitor, partial curve]
CC1CCCN(CC(=O)Nc2ccc(S(=O)(=O)N3CCCC3)cc2)C1 (centres undefined)	inactive: -7.04%	
Cc1cccc2c(=O)c(-c3ccc4c(c3)OCO4)c(NC(=O)c3ccco3)oc12		inconclusive: 89.1 µM [inhibitor, partial curve, poor fit]
Cc1ccc(N2CC(NC(=O)c3ccc(S(=O)(=O)N4CCCC4)cc3)CC2=O)cc1 (centres undefined)	inactive: -20.8%	
O=C(Nc1nc2ccc(Cl)cc2s1)c1ccc(Br)o1		inconclusive: 79.4 µM [inhibitor, partial curve]
CC(C)(C)C1CCc2c(sc(NC(=O)C3CCCO3)c2C(N)=O)C1 (centres undefined)		inconclusive: 79.4 µM [inhibitor, single point]
COc1ccc(OC)c(NC(=O)CCc2c(C)nn(-c3ccc(N4CCCC4)nn3)c2C)c1		inconclusive: 20 µM [inhibitor, full curve, poor fit]
O=C(COc1cccnc1[N+](=O)[O-])N1CCC(Cc2ccccc2)CC1	inactive: -13.8%	
Cc1c(CCC(=O)O)c(=O)oc2c(C)c3occ(-c4ccc(Br)cc4)c3cc12		inconclusive: 89.1 µM [inhibitor, single point]
CC1=C/C(=N\NC(=S)Nc2cccnc2)CC(C)(C)C1		inconclusive: 39.8 µM [inhibitor, partial curve]
COc1ccc(CNC(=O)C2CCC(CNS(=O)(=O)c3ccccc3)CC2)cc1 (centres undefined)	inactive: -4.79%	

Structure (SMILES)	activity change, negative = inhibition	Potency
Cc1ccc(N(CC(=O)N=Nc2c(O)[nH]c3ccccc23)S(C)(=O)=O)c(C)c1		inconclusive: 50.1 µM [inhibitor, partial curve]
COc1cc(NC(=O)c2ccccc2)c(OC)cc1NC(=O)Cc1cccs1		active: 56.2 µM
CCN(CC)c1ccc(/C=N/N2CCN(Cc3ccc(Cl)cc3)CC2)c(O)c1		inconclusive: 1.58 µM [inhibitor, full curve, poor fit]
COc1ccc2[nH]c(=O)c(CNc3cc(C)ccc3C)cc2c1		inconclusive: 28.2 µM [inhibitor, full curve]
Cc1ccccc1Nc1c(-c2ccc(Cl)s2)nc2c(C)cccn12		inconclusive: 3.55 µM [inhibitor, full curve]
Cc1nc2sccn2c(=O)c1CCN1CCC(=C(c2ccc(F)cc2)c2ccc(F)cc2)CC1		inconclusive: 39.8 µM [inhibitor, partial curve]
CC1Cc2ccccc2N1C(=O)c1cccnc1 (centres undefined)	inactive: -1.95%	
Cc1nc([N+](=O)[O-])c(C(=O)OCc2ccccc2F)n1C	inactive: 4.35%	
CCOC(=O)c1noc(C)c1C(=O)Nc1nccs1	inactive: -4.9%	
COc1cc2c(cc1OC)C(c1ccc(N(C)C)cc1)CC(=O)N2 (centres undefined)		inconclusive: 44.7 µM [inhibitor, partial curve]
O=C(Nc1nccs1)C1Cc2ccccc2CN1S(=O)(=O)c1ccc(F)cc1 (centres undefined)		inconclusive: 79.4 µM [inhibitor, partial curve]
C=C(CN(C)C)C(=O)c1cc(C)ccc1C		active: 89.1 µM
CC(=O)CSc1nc2ccccc2s1		inconclusive: 39.8 µM [inhibitor, single point]
CC(=O)Oc1ccc(N(C(C)=O)S(=O)(=O)c2ccc3ccccc3c2)cc1Br		inconclusive: 44.7 µM [inhibitor, partial curve]
Cc1ccc(NC(=O)C2CC(=O)N/C(=N/N=C/c3ccco3)S2)cc1 (centres undefined)	inactive: 1.34%	
COC(=O)c1ccccc1NC(=O)c1ccc2nc(Cc3ccccc3)oc2c1	inactive: 5.11%	
OC(CN(c1ccccc1)c1ccccc1)Cn1cnc2ccccc21 (centres undefined)		inconclusive: 79.4 µM [inhibitor, partial curve]
CN(C)CCCN(Cc1cc2cc3c(cc2[nH]c1=O)OCO3)C(=S)Nc1cccc(Cl)c1		inconclusive: 79.4 µM [inhibitor, partial curve]
O=C(c1ccco1)N1CCN(C(=O)c2cc(-c3ccccc3)nc3ccccc23)CC1		inconclusive: 2.82 µM [inhibitor, full curve]
CC1=CC(C)(C)[N+](C)(C)c2ccccc21		inconclusive: 31.6 µM [inhibitor, single point]
C[C@H]1CN([C@@H](C)CO)C(=O)Cc2cc(NC(=O)CCC(F)(F)F)ccc2O[C@H]1CN(C)Cc1ccc(-c2ccccc2)cc1		inconclusive: 39.8 µM [inhibitor, partial curve]
COc1ccc(/C=N/c2oc(-c3ccccc3)cc2C#N)cc1		inconclusive: 44.7 µM [inhibitor, partial curve]
CCN1CCN(CCCNC(=O)c2ccc3c(c2)NC(=O)/C(=C\c2cccc(C)c2)S3)CC1		inconclusive: 22.4 µM [inhibitor, full curve]
